{
  "source": "PubChem BioAssay AID488969",
  "about": "(Vanderbilt High Throughput Screening Facility, 2010)",
  "note": "The full ranking holds about 110,000 compounds; the median of “z-score” is about -0.1, and the highest 2% start at about 2. The list shows a part of the results. Calls of active or inactive are those of the source.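 How the source made its calls: active means z-score in the third read window above 3 or below -3; inactive means the rest.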",
  "data": [
    {"biological_target": "Metabotropic glutamate receptor 8 (Rattus norvegicus) (UniProt P70579)", "sequence (P70579 whole entry, looked up)": "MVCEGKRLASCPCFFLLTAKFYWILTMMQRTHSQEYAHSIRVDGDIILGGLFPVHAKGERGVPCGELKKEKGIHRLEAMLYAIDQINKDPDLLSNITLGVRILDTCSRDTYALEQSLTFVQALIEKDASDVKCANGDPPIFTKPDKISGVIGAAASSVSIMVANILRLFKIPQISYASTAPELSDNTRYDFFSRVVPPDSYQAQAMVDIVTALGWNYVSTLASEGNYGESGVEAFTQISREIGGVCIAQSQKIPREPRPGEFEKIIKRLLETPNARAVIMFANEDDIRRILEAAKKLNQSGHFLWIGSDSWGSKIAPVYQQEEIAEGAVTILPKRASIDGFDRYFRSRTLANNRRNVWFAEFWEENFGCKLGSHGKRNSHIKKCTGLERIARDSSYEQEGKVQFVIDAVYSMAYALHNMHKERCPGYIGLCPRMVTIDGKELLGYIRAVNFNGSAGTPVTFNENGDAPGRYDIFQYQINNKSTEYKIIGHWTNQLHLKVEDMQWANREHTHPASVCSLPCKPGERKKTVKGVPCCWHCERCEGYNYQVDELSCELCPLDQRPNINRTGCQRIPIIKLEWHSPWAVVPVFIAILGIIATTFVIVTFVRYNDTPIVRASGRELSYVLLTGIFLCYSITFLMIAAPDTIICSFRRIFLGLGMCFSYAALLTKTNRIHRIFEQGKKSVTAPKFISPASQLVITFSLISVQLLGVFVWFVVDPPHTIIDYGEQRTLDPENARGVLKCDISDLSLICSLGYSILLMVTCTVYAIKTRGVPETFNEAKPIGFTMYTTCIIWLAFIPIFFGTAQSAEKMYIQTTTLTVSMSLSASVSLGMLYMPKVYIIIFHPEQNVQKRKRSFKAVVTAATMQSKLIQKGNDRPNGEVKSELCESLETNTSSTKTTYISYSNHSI", "assay": "mGluR8 Gi/Go-coupled signaling modulation – cell-based, rat, thallium flux, HTS, primary screen (AID 488969)", "details": "HEK293 rat mGluR8, GIRK (G protein-gated inwardly rectifying potassium channel) thallium flux, FluoZin2; at 10 µM; stronger effect = higher value; submaximal glutamate (EC20) added with thallium", "values": [
      {"smiles": "CCCNC(=O)NCCc1ccncc1", "z-score": 0.239},
      {"smiles": "C=CCSc1nnc(C)n1-c1ccc(Cl)cc1", "z-score": -0.174},
      {"smiles": "CCCCCCCC(=O)NC(Nc1ccc(S(N)(=O)=O)cc1)C(Cl)(Cl)Cl", "note": "(centres undefined)", "z-score": -0.302},
      {"smiles": "O=C1NC(c2cccs2)Nc2sc3c(c21)CCCC3", "note": "(centres undefined)", "z-score": -0.137},
      {"smiles": "O=C(CSc1nc2c([nH]c3ccccc32)c(=O)n1-c1cccc(Cl)c1)N1CCOCC1", "z-score": -0.224},
      {"smiles": "CCOC(=O)N1CCN(Cc2nc(-c3ccc(C)cc3)no2)CC1", "z-score": 0.175},
      {"smiles": "Cc1ccc(O)c(C(=O)c2cnc3c(c2)c(C)nn3-c2ccccc2)c1", "z-score": 0.522},
      {"smiles": "Cc1cccc(NC(=O)c2sc3nc4c(c(-c5cccs5)c3c2N)CN(C)CC4)c1", "z-score": -0.0909},
      {"smiles": "Cc1cc(C)cc(N(CC(=O)N2CCN(Cc3ccccc3)CC2)S(=O)(=O)c2c(C)noc2C)c1", "z-score": 0.124},
      {"smiles": "CC1(C)CC(=O)C2=C(C1)N(c1cccc(O)c1)C1=C(C2)C(=O)CC(C)(C)C1", "z-score": -0.746},
      {"smiles": "Cn1c(-n2c(CCCN3C(=O)c4ccccc4C3=O)nc3ccccc3c2=O)nc2ccccc21", "z-score": -0.252},
      {"smiles": "Cc1cc(C(=O)OCC(=O)Nc2ncc(C(F)(F)F)cc2Cl)c(C)o1", "z-score": -0.119},
      {"smiles": "O=C(NC1CCCCC1)C(c1cccs1)N(C(=O)C(F)(F)F)c1ccccc1", "note": "(centres undefined)", "z-score": 0.111},
      {"smiles": "COc1ccc(C(=O)N[C@H](C(=O)OCC(=O)NC(=O)c2cccn2C)C(C)C)cc1", "z-score": -0.0993},
      {"smiles": "Cc1ccc(N2Cc3ccccc3OC(C)C2=O)cc1", "note": "(centres undefined)", "z-score": -0.257},
      {"smiles": "Cc1nn(Cc2c(F)c(F)c(F)c(F)c2F)c(C)c1NC(=O)c1ccc(COc2ccc(F)cc2)o1", "z-score": -1.15},
      {"smiles": "COc1ccccc1/C=C/C(=O)Nc1ccc2c(c1)OCCO2", "z-score": 0.0024},
      {"smiles": "Cc1nc(NC(=O)CSc2nnc3ccccn23)c(Cl)cc1Cl", "z-score": 0.201},
      {"smiles": "CC(=O)N1Cc2ccccc2C(C)CC12CCCCC2", "note": "(centres undefined)", "z-score": -0.727},
      {"smiles": "O=c1[nH]c2ccccc2n1CCCSc1cnc2ccccc2n1", "z-score": -0.509},
      {"smiles": "Cc1ccc(C(=O)NCCCn2ccnc2)o1", "z-score": -0.246},
      {"smiles": "COc1cc(OC)cc(C(=O)NCCNC(=O)c2ccco2)c1", "z-score": -0.11},
      {"smiles": "CC1=C(C#N)C(NC(=O)C2CCCCC2)(C(F)(F)F)C(=O)N1", "note": "(centres undefined)", "z-score": 0.178},
      {"smiles": "Cc1ccc(/C=C/C(=O)N2CCCC(C)C2)cc1", "note": "(centres undefined)", "z-score": -0.296},
      {"smiles": "COc1ccc(OC(=O)c2cnn(-c3ccccc3)c2C)cc1", "z-score": -0.182},
      {"smiles": "FC(F)(F)c1cnc(NNC(=S)Nc2ccc(Cl)cc2)c(Cl)c1", "z-score": "active: 6.35"},
      {"smiles": "Cc1cc(NC(=O)COC(=O)C2CCN(S(=O)(=O)c3c(Cl)cccc3Cl)CC2)no1", "z-score": -0.303},
      {"smiles": "Cc1ccc2cc(C(c3nnnn3CC3CCCO3)N3CCc4ccccc4C3)c(=O)[nH]c2c1", "note": "(centres undefined)", "z-score": 0.023},
      {"smiles": "O=S(=O)(Nc1ccc(N=Nc2ccccc2)cc1)c1ccccc1", "z-score": -0.241},
      {"smiles": "CCC(C)C(=O)Nc1ccc(OC)cc1[N+](=O)[O-]", "note": "(centres undefined)", "z-score": -0.00262},
      {"smiles": "COc1cc(CC(=O)N/N=C/c2ccc([N+](=O)[O-])cc2)c([N+](=O)[O-])cc1OC", "z-score": 0.0193},
      {"smiles": "CCC(C(=O)NCc1ccco1)n1nc(-c2ccc(OC)cc2)ccc1=O", "note": "(centres undefined)", "z-score": 1.8},
      {"smiles": "O=C(CSc1nnc(SCc2cccc3ccccc23)s1)N/N=C/c1c[nH]c2ccccc12", "z-score": 0.828},
      {"smiles": "CCc1c(C)nc(SCC(=O)c2cccs2)c(C#N)c1C", "z-score": 0.0943},
      {"smiles": "O=C(CCn1c(=S)[nH]c2ccccc2c1=O)NCCCN1CCOCC1", "z-score": 0.308},
      {"smiles": "COc1ccc(N(CN2C(=O)C3C4C=CC(C4)C3C2=O)C(=O)c2ccco2)cc1", "note": "(centres undefined)", "z-score": -1.01},
      {"smiles": "CCCC(=O)Nc1ccc(NC(=O)c2cccs2)cn1", "z-score": -0.4},
      {"smiles": "Cc1ccc(OCC(=O)NNC(=O)c2cc3ccccc3o2)cc1", "z-score": 0.736},
      {"smiles": "Cc1noc(C)c1COc1ccc(C(=O)NCC2CCCO2)cc1", "note": "(centres undefined)", "z-score": 0.0578},
      {"smiles": "COC(=O)CNC(=O)Cn1cnc2sc(C)c(S(=O)(=O)N3CCC(C)CC3)c2c1=O", "z-score": -0.219},
      {"smiles": "N#CC(C(=O)NC1CCCCC1)c1nc2ccccc2nc1N1CCN(c2ccc(F)cc2)CC1", "note": "(centres undefined)", "z-score": 0.252},
      {"smiles": "S=C(Nc1ccc2snnc2c1)N1CCN(c2ccccn2)CC1", "z-score": -0.0796},
      {"smiles": "O=C(Nc1ccccc1)c1ccc(NCC2CCCO2)c([N+](=O)[O-])c1", "note": "(centres undefined)", "z-score": -0.175},
      {"smiles": "Cc1cc(N/N=C/c2ccc(Cl)cc2)nc(NCc2ccccc2)n1", "z-score": -0.165},
      {"smiles": "Cc1ccc(C)c(-n2c(Cc3cc(=O)[nH]c(=O)[nH]3)nnc2SC(C)C)c1", "z-score": 0.138},
      {"smiles": "O=C1CCCN1Cc1ncnn1-c1ccccc1", "z-score": -0.145},
      {"smiles": "COc1cccc(N2CCCn3c2nc2c3c(=O)n(CCN3CCOCC3)c(=O)n2C)c1", "z-score": -0.284},
      {"smiles": "CCOC(=O)c1c(C)nc2sc3c(=O)n(-c4ccc(C(C)=O)cc4)cnc3c2c1-c1ccc(OC)cc1", "z-score": -0.361},
      {"smiles": "Cc1cc(C)n(-c2ccc(C(=O)Nc3ccc(N4CCOCC4)cc3)cc2)n1", "z-score": -0.13},
      {"smiles": "O=C(CCCn1c(=O)[nH]c2ccsc2c1=O)N1CCCCC1", "z-score": 0.2},
      {"smiles": "COc1cccc(CN2C(=O)c3ccccc3C2C(=O)NCC2CCCO2)c1", "note": "(centres undefined)", "z-score": -0.0589},
      {"smiles": "CCc1ccc(OCC(=O)N(C)CCC#N)c(Br)c1", "z-score": -0.043},
      {"smiles": "CCOC(=O)c1cc2ccccc2nc1C", "z-score": 0.138},
      {"smiles": "Cc1csc(SCC(=O)Nc2nc(-c3ccccc3)cs2)n1", "z-score": 1.07}
    ]}
  ]
}
